From the supplement of paper PMC3334620
The full ranking holds about 33,000 sequences; the median of “E-score (-0.5 to 0.5)” is about -0.032, and the highest 2% start at about 0.36. This is one part of the list.

target: T1, Sko1 (UniProt Q02100); assay: PBM E-score (8-mer binding enrichment) (E-score (-0.5 to 0.5)); higher = stronger / more preferred TF binding; most listed sequences are background and not binding sites; details: protein concentration: 200 nM; construct: GST-full length
T1 sequence: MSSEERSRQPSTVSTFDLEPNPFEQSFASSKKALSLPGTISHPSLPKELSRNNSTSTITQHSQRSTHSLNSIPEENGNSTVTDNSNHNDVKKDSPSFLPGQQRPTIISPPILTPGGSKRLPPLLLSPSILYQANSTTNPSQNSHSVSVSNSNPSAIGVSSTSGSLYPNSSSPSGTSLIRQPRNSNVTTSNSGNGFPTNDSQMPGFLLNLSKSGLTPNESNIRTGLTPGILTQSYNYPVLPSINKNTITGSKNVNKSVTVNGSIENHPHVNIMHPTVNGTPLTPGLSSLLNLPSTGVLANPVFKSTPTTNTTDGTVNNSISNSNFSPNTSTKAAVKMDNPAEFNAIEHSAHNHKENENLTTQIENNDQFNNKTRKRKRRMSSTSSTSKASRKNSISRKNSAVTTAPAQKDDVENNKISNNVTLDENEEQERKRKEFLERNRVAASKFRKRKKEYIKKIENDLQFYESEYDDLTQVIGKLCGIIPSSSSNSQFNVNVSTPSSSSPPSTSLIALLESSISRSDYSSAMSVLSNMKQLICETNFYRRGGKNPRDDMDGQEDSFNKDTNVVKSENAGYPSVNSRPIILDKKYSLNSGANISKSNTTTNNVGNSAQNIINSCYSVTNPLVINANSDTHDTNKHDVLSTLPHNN
Procedure, shortened: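 Bound GST-tagged yeast transcription factors, applied at about 100-200 nM to double-stranded universal all-10-mer Agilent arrays, were detected with fluorescent anti-GST. Scans were normalised with masliner. A modified Wilcoxon-Mann-Whitney statistic, the E-score, was assigned to each ungapped eight-base word pooled with its reverse complement by the Universal PBM Analysis Suite.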

Sequence | PBM E-score
CCGACAAA | -0.00364
CGCTTCGC | 0.0438
AAGTTCAC | 0.0404
CAACTCCC | -0.212
CGGTGAGC | -0.267
ATAGTGTC | -0.113
AACCGAAC | -0.155
CCGCTCGA | -0.161
CGCAAGTA | 0.243
CCTGTCTA | -0.174
AATGGACA | 0.118
TGTTATAA | 0.288
GCGGAGAA | -0.121
ATTCACGG | 0.095
GTTAAGAA | 0.0211
AGCTAGTG | -0.00092
CCTCGTGA | 0.0827
CCCTGTAC | -0.178
AACCCAAT | -0.105
CAACCCAC | 0.011
AACACTTC | 0.134
ATCGGCAC | 0.0815
CTATGGGC | -0.157
ACCACCCT | -0.141
GCCCGGGA | -0.357

Sequence | PBM E-score
CCCCGCGC | -0.254
CACGTATG | 0.426
CGGAATCA | 0.15
AAATGGAG | 0.0295
GGCCTTCA | -0.206
ACACGGGA | -0.135
CAATTTGG | 0.0415
AACCGACA | 0.0261
CGTACCGC | 0.265
CTCCCACA | -0.278
GCTTGTCA | 0.00095
AGCCTACC | -0.29
AATATACG | 0.359
CGTGTCGA | 0.106
GCAATAAA | 0.18
CATAACTC | -0.106
CAGGCAAC | -0.0389
AAGTCTAC | -0.0388
CCGCACTC | -0.14
ATAAATTC | 0.128
AACAAGGT | 0.0535
TACTCCCA | 0.0397
CTGGTCAC | -0.141
CAGGCTAC | -0.204
CGCATATC | 0.188

Sequence | PBM E-score
GCCCCAGA | -0.199
CATGATCG | 0.0624
CCACACCC | -0.158
CAAAGCCC | -0.131
AGGAGTTG | 0.0436
ACGTGGAC | 0.33
ACCGGACA | -0.26
CGGCTAGA | -0.213
AAGCATAT | 0.173
AACCTTCA | -0.00061
AAGATACT | -0.0387
AATGTGGC | -0.0144
GCGAGCGA | -0.0692
ACCCTCAG | -0.21
ATCGCATG | 0.0067
ATAATGTG | 0.0598
CGTATAAG | 0.211
ATCTGACG | 0.345
AATAGATT | 0.0542
CACCCTAG | 0.0133
CGATTAAG | 0.0497
ACGACAGC | 0.225
CTTAGTAC | 0.00743
AGAGGTGA | -0.0048
ATCCAGAC | -0.117

Sequence | PBM E-score
GCACCAAA | -0.0247
GAAAACAC | 0.0759
AGTTAATC | 0.0573
AGTCAACG | 0.0691
ATGGAACG | 0.0532
AGTTGCGG | -0.097
ACAGTTAA | 0.00167
ACGCCCTA | -0.0906
AGCCGTGA | -0.0249
GTTAATCA | 0.272
CAACGAAA | 0.249
ACGGGAGG | -0.244
ATTAGGAC | -0.11
TCTTACAA | -0.0235
CGGCCCTA | -0.224
GCACCAGC | -0.168
GCCGCTCA | -0.171
GTAAACTA | 0.267
GTGTTCCA | -0.165
CCAAGTTC | -0.223
GTCACCTA | 0.177
CTGTATAC | 0.0913
GTCAGTCA | 0.228
ACGATTGC | 0.197
ACTTAATC | 0.0499

Sequence | PBM E-score
GGCATCAC | 0.0833
GGTATCAC | -0.0377
ACAGATAC | 0.167
GTACAGCA | -0.0622
ATACACAT | 0.132
AGCCTAGG | -0.355
AATTCGGT | 0.187
ACCTTAAA | -0.0637
AGGTTTTC | 0.145
GAATAATA | 0.133
ACAAGGAT | -0.0939
GACGGTTA | -0.101
CTGGTGAA | -0.226
CTACGTAC | 0.449
ACGGAACC | 0.1
CATTATCG | 0.0219
ATCGGTCA | -0.195
ATAAAAAG | 0.112
GGGAATAA | 0.0389
AAAGCGAC | 0.00752
CCTATACA | -0.077
CACGGTGC | -0.215
CCATCGCC | -0.222
ACGACCCG | -0.161
ACGGGGGA | -0.104

Sequence | PBM E-score
GGATTTGA | 0.117
CGTCCCCA | -0.197
CCGCTATC | -0.23
CTCTGCAC | -0.274
AAAGCACT | -0.165
AATACGCC | 0.198
GCTGGCCC | -0.341
CTTTACAC | 0.219
AAGCGTCC | -0.0948
CAGCAGAG | -0.366
AGATATGC | 0.0741
AAAAGTCA | -0.00301
CGCTAAAG | 0.0188
AAGGTACA | -0.0469
ACTTGTGC | -0.216
CAAAGAGA | -0.139
AAATCCTC | -0.169
ATAACTCC | -0.213
TCGTTGAA | 0.162
CATATACA | 0.282
CTAGGTAC | -0.0343
GGATGCCC | -0.326
ACCGAGCT | -0.276
CATCCCAG | -0.258
ATGGTCAA | 0.0955

Sequence | PBM E-score
CATAGTGA | 0.0421
CGCAGACA | -0.0945
ATATTCCA | 0.169
CTGCACCC | -0.248
CTATTTTC | 0.0487
ATGACGGC | 0.285
CGAGGAAA | -0.0368
GCGCTGAC | 0.154
CTAATTCC | 0.176
AGGCGCAT | -0.158
AGTCACGG | -0.0356
CACACGCC | 0.0149
CGCTTTGC | 0.0148
GTCTTCTA | -0.0183
CAAGCGCG | -0.204
AGAAAGGG | -0.145
GGCTAATA | -0.0056
ACAAGCTG | -0.0759
CGAGATCC | -0.0847
AGGAGGTG | -0.273
ATCGAGAA | 0.142
AAGCAGTA | -0.165
